Results: US20070101461A1, “Method for Improving Phytoremediation Treatment of a Contaminated Medium” (priority 2001, published 2007)

How the values were obtained:
[1] = tested on: Pisum sativum var. Early Onward; test: survival of plants in the presence of 2,4-D; assay type: in vivo; conditions: Pea, 1 mg/l 2,4-D
[2] = tested on: Pisum sativum var Early Onward; test: phyto-toxic effects of 2,4-D on pea plants (roots, chlorophyll)

O=C(O)COc1ccc(Cl)cc1Cl [2,4-D, 2,4-dichlorophenoxyacetic acid]
Dead plants, Non-inoculated plants + 2,4-D [1]: 80%
Healthy plants, Non-inoculated plants + 2,4-D [1]: 20%
chlorophyll a and b levels ([2]; applications of 2,4-D): statistically significant reductions
root systems of non-inoculated plants ([2]; even at the lowest level of 2,4-D tested): severe callus formation and root thickening
